Data published in the antibiotic and cytotoxicity screens of Wong et al. (2023).
Some of the results follow.

Tested on: S. aureus RN4220
Assay: growth inhibition call (relative growth <= 0.2)
Details: 50 µM

Growth inhibition call, inactive:
CC(C)(Oc1ccc(CCNC(=O)c2ccc(Cl)cc2)cc1)C(=O)O, C[C@H](CO)N1C[C@H](C)[C@@H](CN(C)Cc2ccc(-c3ccccc3)cc2)Oc2ccc(NC(=O)NC3CCCCC3)cc2C1=O, Cc1ccc(S(=O)(=O)N(C)C[C@@H]2Oc3c(NS(=O)(=O)c4ccc(F)cc4)cccc3C(=O)N([C@H](C)CO)C[C@H]2C)cc1, C[C@H](CO)N1C[C@H](C)[C@H](CN(C)C(=O)Nc2ccc3c(c2)OCO3)Oc2ccc(NC(=O)c3ccncc3)cc2CC1=O, COc1ccc(NC(=O)N(C)C[C@@H]2Oc3ccc(NC(=O)C4CC4)cc3CC(=O)N([C@@H](C)CO)C[C@H]2C)cc1, C[C@H]1CN([C@@H](C)CO)C(=O)Cc2cc(NC(=O)Nc3ccc(C(F)(F)F)cc3)ccc2O[C@@H]1CN(C)Cc1ccc2c(c1)OCO2, C[C@H](CO)N1C[C@H](C)[C@@H](CN(C)C(=O)Nc2ccc(C(F)(F)F)cc2)Oc2ccc(NC(=O)NC3CCCCC3)cc2C1=O, C[C@@H]1CN([C@@H](C)CO)C(=O)c2cc(NC(=O)c3ccncc3)ccc2O[C@@H](C)CCCCO[C@@H]1CN(C)Cc1ccc(C(F)(F)F)cc1, CC(C)NC(=O)N[C@H]1C=C[C@H](CC(=O)NCCN2CCCC2)O[C@@H]1CO, C[C@H]1CN([C@@H](C)CO)S(=O)(=O)c2ccc(C#CC3CC3)cc2O[C@H]1CN(C)C(=O)Cc1ccncc1, C[C@@H]1CN([C@@H](C)CO)C(=O)c2cc(NC(=O)Nc3ccccc3)ccc2O[C@@H](C)CCCCO[C@H]1CN(C)S(=O)(=O)c1cccs1, C[C@@H]1CCCCO[C@@H](CN(C)C(=O)Nc2ccc3c(c2)OCO3)[C@H](C)CN([C@H](C)CO)C(=O)c2cc(NS(=O)(=O)c3ccc(F)cc3)ccc2O1, C[C@H]1CCCCO[C@H](CN(C)Cc2ccc(Cl)c(Cl)c2)[C@@H](C)CN([C@@H](C)CO)C(=O)c2cc(NS(=O)(=O)c3ccccc3)ccc2O1, CC(C)NC(=O)N(C)C[C@@H]1Oc2ccc(NC(=O)CCCN(C)C)cc2CC(=O)N([C@@H](C)CO)C[C@H]1C, C[C@H]1CN([C@@H](C)CO)C(=O)CCCn2cc(nn2)CO[C@H]1CN(C)C(=O)Nc1ccc(C(C)(C)C)cc1, CC(C)NC(=O)Nc1ccc2c(c1)CC(=O)N([C@@H](C)CO)C[C@@H](C)[C@@H](CN(C)S(=O)(=O)c1cccs1)O2, C[C@@H]1CN([C@@H](C)CO)C(=O)c2cc(C#CCN(C)C)cnc2O[C@H]1CN(C)C(=O)CN1CCOCC1, COc1ccccc1NC(=O)N(C)C[C@H]1Oc2ncc(C#CCN(C)C)cc2C(=O)N([C@@H](C)CO)C[C@@H]1C, C[C@H]1CN([C@@H](C)CO)C(=O)Cc2cc(NC(=O)Nc3cccc4ccccc34)ccc2O[C@@H]1CN(C)Cc1ccc(C(=O)O)cc1, COc1ccc(S(=O)(=O)Nc2ccc3c(c2)C(=O)N([C@H](C)CO)C[C@@H](C)[C@@H](CN(C)Cc2ccc(-c4ccccc4)cc2)O3)cc1, COc1ccc(S(=O)(=O)Nc2ccc3c(c2)C(=O)N([C@@H](C)CO)C[C@@H](C)[C@H](CN(C)Cc2ccccc2)OCCCC[C@H](C)O3)cc1, Cn1c(=O)c2c(nc(N3CCOCC3)n2CCN)n(C)c1=O, C[C@H](CO)N1C[C@H](C)[C@H](CN(C)C(=O)Nc2ccccc2)Oc2c(NS(=O)(=O)c3cn(C)cn3)cccc2C1=O, NCC[C@H]1CC[C@@H](NC(=O)Nc2ccc(F)cc2)[C@H](CO)O1, Cl.Clc1ccc2nsnc2c1NC1=NCCN1, NCC1CCOCC1, C[C@@H]1CCCCO[C@@H](CN(C)C(=O)C2CCCCC2)[C@H](C)CN([C@@H](C)CO)C(=O)c2cc(NC(=O)Nc3ccc(F)cc3)ccc2O1, Cn1c(=O)c2cc(S(=O)(=O)NCCC(=O)NC3CCCC3)ccc2n(C)c1=O, COc1cccc(C#Cc2ccc3c(c2)O[C@@H](CN(C)C(=O)CN2CCOCC2)[C@H](C)CN([C@H](C)CO)S3(=O)=O)c1, Nc1ccc2c(c1)OCO2, COc1ccc(S(=O)(=O)N(C)C[C@@H]2Oc3ccc(NS(=O)(=O)c4ccccc4)cc3CC(=O)N([C@H](C)CO)C[C@@H]2C)cc1, C[C@@H]1CN([C@H](C)CO)C(=O)c2cccc(NC(=O)c3nc4ccccc4s3)c2O[C@H]1CN(C)C(=O)Nc1ccc(F)cc1, CC(C)NC(=O)Nc1ccc2c(c1)C(=O)N(C)[C@@H]1CC[C@H](CC(=O)NCc3ccc(F)cc3)O[C@H]1CO2, COc1ccc(NC(=O)Nc2ccc3c(c2)CC(=O)N([C@H](C)CO)C[C@@H](C)[C@H](CN(C)C(=O)Nc2cccc4ccccc24)O3)cc1, CC(C)(O/N=C(\C(=O)N[C@@H]1C(=O)N2C(C(=O)O)=C(C[N+]3(CCNC(=O)c4ccc(O)c(O)c4Cl)CCCC3)CS[C@H]12)c1csc(N)n1)C(=O)O, C[C@H](CO)N1C[C@H](C)[C@H](CN(C)S(C)(=O)=O)Oc2ccc(NC(=O)Nc3ccc(C(F)(F)F)cc3)cc2CC1=O, CC(C)(C)c1ccc2c(c1)O[C@H](C(=O)N/N=C/c1ccc[nH]1)CO2.CC(C)(C)c1ccc2c(c1)O[C@H](C(=O)N/N=C\c1ccc[nH]1)CO2, CO[C@H]1CN(C)C(=O)c2ccc(NC(=O)Nc3cccc(F)c3)cc2OC[C@H](C)N(C(=O)Nc2c(C)noc2C)C[C@@H]1C, C[C@H]1CCCCO[C@H](CN(C)C(=O)Nc2ccc3c(c2)OCO3)[C@@H](C)CN([C@@H](C)CO)C(=O)c2cc(NC(=O)Nc3cccc4ccccc34)ccc2O1, C[C@H](CO)N1C[C@H](C)[C@@H](CN(C)S(=O)(=O)c2ccccc2C#N)OCc2cn(nn2)CCCC1=O
